Tests used:
Test in all cases: HPLC/LC-MS prenyl transfer assay
Assay type in all cases: biochemical
[1] = target: T1, Mc03599 (Microsporum canis, UniProt C5FM58); settings: prenyl donor; acceptors 2, 4, 5, 11; 50 mM Tris-HCl pH 7.5, 30 °C
T1 sequence (C5FM58 1-436): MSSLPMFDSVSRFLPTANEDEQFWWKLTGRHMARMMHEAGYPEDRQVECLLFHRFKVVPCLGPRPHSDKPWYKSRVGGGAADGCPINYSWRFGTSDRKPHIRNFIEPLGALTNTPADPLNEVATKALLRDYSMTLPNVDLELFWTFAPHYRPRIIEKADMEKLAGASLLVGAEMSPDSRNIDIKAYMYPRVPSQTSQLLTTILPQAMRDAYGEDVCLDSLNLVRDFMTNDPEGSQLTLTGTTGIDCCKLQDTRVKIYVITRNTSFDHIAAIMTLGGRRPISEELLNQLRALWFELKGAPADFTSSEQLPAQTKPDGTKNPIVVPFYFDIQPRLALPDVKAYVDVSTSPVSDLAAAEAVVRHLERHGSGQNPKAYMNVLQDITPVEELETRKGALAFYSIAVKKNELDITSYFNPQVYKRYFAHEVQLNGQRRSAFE

[2] = target: T2, Tt06703 (Trichophyton tonsurans, UniProt F2S700); settings: prenyl donor; acceptors 2, 4, 5, 11; 50 mM Tris-HCl pH 7.5, 30 °C
T2 sequence (F2S700 1-436): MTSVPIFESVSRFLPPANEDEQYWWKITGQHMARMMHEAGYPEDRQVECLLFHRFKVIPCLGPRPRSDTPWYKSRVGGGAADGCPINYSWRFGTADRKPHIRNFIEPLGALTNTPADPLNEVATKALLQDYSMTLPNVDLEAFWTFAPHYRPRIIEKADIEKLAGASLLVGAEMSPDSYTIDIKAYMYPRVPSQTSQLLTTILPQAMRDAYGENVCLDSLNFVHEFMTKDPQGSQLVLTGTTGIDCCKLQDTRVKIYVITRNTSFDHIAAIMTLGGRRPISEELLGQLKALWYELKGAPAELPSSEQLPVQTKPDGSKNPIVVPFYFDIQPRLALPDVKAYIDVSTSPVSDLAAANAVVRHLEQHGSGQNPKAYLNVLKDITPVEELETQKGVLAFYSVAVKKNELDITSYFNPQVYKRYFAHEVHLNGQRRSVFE

[3] = target: T3, Nf112230 (Aspergillus fischeri, UniProt A1D8I8); settings: prenyl donor; acceptors 2, 4, 5; 50 mM Tris-HCl pH 7.5, 30 °C
T3 sequence (A1D8I8 1-454): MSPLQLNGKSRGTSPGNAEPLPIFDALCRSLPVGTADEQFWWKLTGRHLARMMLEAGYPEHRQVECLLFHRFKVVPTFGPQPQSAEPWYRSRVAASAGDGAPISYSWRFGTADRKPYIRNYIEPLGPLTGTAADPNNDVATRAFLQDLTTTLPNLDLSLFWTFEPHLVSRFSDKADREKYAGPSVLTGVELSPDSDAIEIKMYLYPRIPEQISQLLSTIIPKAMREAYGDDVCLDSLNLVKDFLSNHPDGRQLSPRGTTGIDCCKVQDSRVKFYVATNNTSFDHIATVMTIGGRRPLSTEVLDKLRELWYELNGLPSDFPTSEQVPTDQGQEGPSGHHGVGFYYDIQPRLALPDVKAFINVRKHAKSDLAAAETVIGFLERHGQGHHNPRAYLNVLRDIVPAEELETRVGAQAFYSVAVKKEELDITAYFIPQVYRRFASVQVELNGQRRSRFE

Compound: CC(C)=CCOP(=O)(O)OP(=O)(O)O [DMAPP]
- HPLC/LC-MS prenyl transfer assay [1]: these enzymes utilize DMAPP instead of GPP as the prenyl donor
- HPLC/LC-MS prenyl transfer assay [2]: these enzymes utilize DMAPP instead of GPP as the prenyl donor
- HPLC/LC-MS prenyl transfer assay [3]: these enzymes utilize DMAPP instead of GPP as the prenyl donor

Reference: paper PMC3904230 (Journal of the American Chemical Society, 2012)
